# Experimental data reported in PubChem BioAssay AID686979 (National Center for Advancing Translational Sciences (NCATS), 2013).
# Where “and” joins values, the source holds several entries; their conditions need not be identical. Identical values can stand only once. The campaign covered roughly 420,000 compounds. About 50,000 (12%) were called active. The inconclusive results got no clear call from the source; some entries with a clear call stand among them for comparison. Calls come from the whole dose curve; as a rule, active = well fitted inhibition curve with a large enough effect; inconclusive = small, poorly fitted or top-dose-only effect; inactive = flat fitted curve, though single readings scatter. Potencies of inconclusive entries are left out as doubtful fits.
# Assay: qHTS for Inhibitors of human tyrosyl-DNA phosphodiesterase 1 (TDP1): qHTS in cells in presence of CPT; note: nearly all actives have a fitted effect of over 55% in size
# Conditions: chicken DT40 Tdp1-/-;hTDP1 cells + 20 nM CPT, ATP luminescence, 48 h; activity change, negative = growth inhibition: at 46.2 µM (top of the series)
# Procedure, shortened: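 Cell growth measured by CellTiter-Glo luminescence after a minimum 48 h, 37 C compound exposure with 20 nM CPT in Tdp1-knockout DT40 cells stably expressing hTDP1, seeded 400/well; qHTS titration format.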
# % is set by controls: 0 for no effect and ±100 for the full control effect; potency is the fitted concentration of half-maximal effect; tags give direction and shape of the fitted curve.
SMILES,Potency,"activity change, negative = growth inhibition"
CC(C)NCC(=O)NC12CC3CC(CC(C3)C1)C2,"inconclusive [inhibitor, single point]",–
CC1CCCCN1S(=O)(=O)c1cnc(Cl)c(Br)c1 (stereo unspecified),"inconclusive [inhibitor, single point]",–
COc1cc(SC)ccc1C(=O)OCc1nc2ccsc2c(=O)[nH]1,active: 8.2 µM,–
Cc1occc1C(=O)NCc1cccs1,inactive,–
Cc1cnc(C(=O)OC(C)C(=O)c2c(C)[nH]c3ccccc23)cn1 (stereo unspecified),inactive,–
O=C(c1cc([N+](=O)[O-])cc([N+](=O)[O-])c1)N1CCCc2ccccc21,"inconclusive [inhibitor, single point]",–
Cc1ccc(OCC(=O)Nc2cccc3ccc(C)nc23)c(C)c1,"inconclusive [inhibitor, full curve]",–
COc1ccc(CCNC(=O)CCCc2nnc3n(C)c(=O)c4sccc4n23)cc1OC,inactive,–
O=C(NCCCN1CCOCC1)[C@@H]1CSC2c3ccccc3C(=O)N21 (stereo partly specified),inactive,–
Cc1noc(NS(=O)(=O)c2ccc(NC(=O)C34CC5CC(C3)CC(n3cnc(Cl)n3)(C5)C4)cc2)c1C,inactive,–
CC(C)c1ccc(/C=C/C(=O)Nc2nncs2)cc1,"inconclusive [inhibitor, single point]",–
CC(C)n1nc(C(=O)OCC(=O)NCCc2ccc(S(N)(=O)=O)cc2)c2ccccc2c1=O,inactive,–
CCc1nc2ccccc2c2nc3ccccc3n12,"inconclusive [inhibitor, partial curve]",–
O=C(N/N=C/c1ccc([N+](=O)[O-])s1)c1ccncc1,active: 6.51 µM,–
CC(C)c1[nH]nc2c1C(c1cccs1)C(C#N)=C(N)O2 (stereo unspecified),"inconclusive [inhibitor, single point]",–
CCOc1ccccc1CNS(=O)(=O)c1cc(-c2cc(C)no2)ccc1OC,"inconclusive [inhibitor, partial curve]",–
COc1cc(Nc2cccc(-c3ccccc3)n2)cc(OC)c1OC,active: 18.4 µM,–
NC(=O)CC(NC(=O)Cc1cccc2ccccc12)c1ccc(NCc2ccc(F)cc2)c([N+](=O)[O-])c1 (stereo unspecified),"inconclusive [inhibitor, partial curve, poor fit]",–
COc1cc(C(C)=O)ccc1Oc1ccc(S(=O)(=O)N2CCOCC2)cn1,"inconclusive [inhibitor, single point]",–
CCOc1ccccc1NC(=O)Cn1nc(N2CCN(c3ccccc3)CC2)ccc1=O,"inconclusive [inhibitor, single point]",–
O=C(NC1CCCC1)c1cc(COc2ccc3ncccc3c2)on1,active: 3.66 µM,–
Cn1c(/C(C#N)=C/c2ccc(C(F)(F)F)cc2)nc2ccccc21,active: 20.6 µM,–
COc1ccc(N2CCN(Cc3nc4c(c(=O)n(C)c(=O)n4C)n3CC(C)=O)CC2)cc1,active: 13 µM,–

SMILES,Potency,"activity change, negative = growth inhibition"
CCOC(=O)c1ccc(NC(=S)N2CCSC2c2ccc(Cl)cc2)cc1 (stereo unspecified),"inconclusive [inhibitor, single point]",–
COc1ccccc1NC(=O)C(=O)c1cn(CC(=O)N2CCOCC2)c2ccccc12,"inconclusive [inhibitor, single point]",–
O=C(CCC1N=C2c3ccccc3N=C(SCC(=O)NCCc3ccccc3)N2C1=O)NCc1ccc(F)cc1 (stereo unspecified),"inconclusive [inhibitor, single point]",–
O=C1NC[C@H](CC2CCCCC2)N(CCc2cccc3ccccc23)C1=O,"inconclusive [inhibitor, single point]",–
COC(=O)[C@@H]1[C@@H](C#N)C2(c3ccccc3-c3ccccc32)N(c2ccc(Cl)cc2)N1C#N,active: 3.26 µM,–
C/C(=N\NC(=O)CNC(=O)c1cccc(F)c1)c1ccc2ccccc2c1,inactive,–
CCOC(=O)Cn1c(=O)oc2cc(S(=O)(=O)NCCc3ccc(OCC)c(OCC)c3)ccc21,inactive,–
Cc1cn2c(=O)c(S(=O)(=O)NCc3ccc(F)cc3)c(C)nc2s1,"inconclusive [inhibitor, full curve, poor fit]",–
CCOC(=O)CN(C(=O)CCC(=O)Nc1cc(C)on1)C(C(=O)NC1CCCC1)c1cccnc1 (stereo unspecified),inactive,–
Cc1nn(-c2ccc(N3CCCCC3)nn2)c(C)c1CCC(=O)Nc1ccc(F)c(F)c1,"inconclusive [inhibitor, single point]",–
CCN(CC)c1ccc2c(Nc3ccccc3)c(C=O)c(=O)oc2c1,inactive,–
Cc1ccc(CNC(=O)CSCc2nc(-c3cccc(C)c3)oc2C)cc1,"inconclusive [inhibitor, single point]",–
COc1ccc(CN2Cc3cccc4c3[C@@H](CC2=O)[C@H](O)[C@H](O)C4)cc1,"inconclusive [inhibitor, full curve, poor fit]",–
Clc1ccc(-n2cnc3c(Cl)ncnc32)cc1Cl,active: 4.61 µM,–
O=C(Cn1c(=O)n(-c2ccccc2Cl)c(=O)c2sc3ccccc3c21)NC1CCCC1,inactive,–
CCN1C=C(Cc2ccccc2C)C2=C(C1)C(c1ccccc1C)C(C#N)=C(N)O2 (stereo unspecified),active: 16.4 µM,–
CCOc1ccc(-c2nnc(SCC(=O)N(CC)c3cccc(C)c3)o2)cc1,active: 20.6 µM,–
Cc1ccc(NC(=O)C2C3CCCCC32)cc1[N+](=O)[O-] (stereo unspecified),inactive,–
CCS(=O)(=O)c1nc(S(=O)(=O)c2ccc(Cl)cc2)c(N2CCOCC2)s1,"inconclusive [inhibitor, single point]",–
COc1ccc(OCCN2CCC(C(=O)NC(c3ccccn3)c3ccccc3OC)CC2)cc1 (stereo unspecified),–,inconclusive: -31.8% [inhibitor]
O=C(Nc1ccc(Cl)cn1)c1cccnc1,"inconclusive [inhibitor, partial curve, poor fit]",–
CCOc1ccc(OCC)c(NC(=O)C2CCCN(S(=O)(=O)c3ccc(C)cc3)C2)c1 (stereo unspecified),active: 18.4 µM and active: 25.9 µM,–
CC/C(=C\C(=O)c1ccncc1)Nc1ccc(O)cc1,"inconclusive [inhibitor, partial curve]",–
